Key:
[1] = target: T1, human Claudin18.2 (Homo sapiens, UniProt P56856); assay: Flow cytometry affinity to HEK293T-Claudin 18.2 cells; assay type: binding; design: expressed in transfected cells
Description: The affinity of 2C6.9-hz21 to human claudin 18.2 on cell membrane was detected using HEK293T-Claudin 18.2 cells, as follows. HEK293T-Claudin 18.2 cells were detached and centrifuged, followed by washing for twice with PBS. And then the cells were resuspended in PBS containing 1% BSA and were plated into 96-well tip bottom plate at 300000 cells per well in a volume of 50 μl for 20 wells in total. 2C6.9-hz21 or IMAB362 antibody was then added with 11 concentrations starting from 1000 nM with three-fold dilution. Human IgG was served as negative control. The reactions were mixed well and incubated for 1 h at 4° C. in the dark. Following by three times of washing with PBS, the FITC-labelled anti-human Fc secondary antibody (Biolegend, 409322) was added and incubated for 0.5h in the dark. Detection was performed by flow cytometry (Beckman, Cytoflex) after washing for three times with PBS.

[2] = target: T1, human Claudin18.2; assay: Specificity by FACS, HEK293T-human Claudin18.2 cells; assay type: binding; design: expressed in transfected cells; host or cells: L929, infected with pLVX-IRES-puro lentivirus, puromycin-selected monoclonal line; cells were formaldehyde-fixed for the cellular ELISA; conditions: antibody 1000 nM
Description: (§1) The specificity of candidate antibodies was detected by FACS. The steps are as follows, HEK293T, HEK293T-human Claudin 18.1 and HEK293T-human Claudin18.2 cells were detached and then centrifuged. After washing twice with PBS, the cells were resuspended with PBS containing 1% BSA. 300,000 cells for each cell line were added with the candidate antibodies at a final concentration of 1000 nM, mixed well, and incubated for 1 h at 4° C., protected from light. Then the cells were washed for three times with PBS and FITC-labeled anti-human Fc secondary antibody (BioLegend, 409322) was added, followed by 0.5h of incubation at 4° C. in the dark. Detection was performed by flow cytometry (Beckman, Cytoflex) after washing with PBS for three times.

[3] = target: T2, human Claudin 18.1 (Homo sapiens, UniProt P56856); assay: Specificity by FACS, HEK293T-human Claudin 18.1 cells; assay type: binding; conditions: antibody 1000 nM
T2 construct: expressed in transfected cells; host or cells: HEK293T, infected with pLVX-IRES-puro lentivirus; clone HEK293T-Claudin 18.1-1C2
Description: as §1

[4] = test system: HEK293T-Claudin 18.2 cells; assay: NK cell mediated ADCC on HEK293T-Claudin 18.2 cells (LDH); assay type: cell-based; conditions: HEK293T-Claudin 18.2 target cells; Table 14 experiment
Description: The steps were as follows: HEK293T-Claudin 18.2, L929-Claudin 18.2, KATOIII-Claudin 18.2 and NUGC-4 cells were harvested and centrifuged followed by adjustment of cell density. 1×10^4/well of cells were plated on a plate and incubated overnight. The medium was removed on the next day. NK92MI-CD16a cells (Huabo Biopharm) were centrifuged, resuspended in MEMA medium and adjusted to 1×10^6/mL, then 50 μL/well cells were added to the corresponding wells. […] For HEK293T-Claudin18.2, L929-Claudin18.2 and KATOIII-Claudin18.2 cells, ten antibody concentrations were tested, starting from 40 μg/mL with 5-fold dilution. For NUGC-4 cells, eleven antibody concentrations were tested, starting from 2 mg/mL with 5-fold dilution. 50 μL/well of the diluted antibodies were added to the corresponding wells and the reactions were left to stand in incubator at 37° C., 5% CO2 and incubated for 5.5h. Lysis buffer was then added to the positive control well and incubated for another 0.5h. 50 μL/well of Lactate Dehydrogenase (LDH) detection agent (DOJINDO LABORATORISE, CK12) were added to the wells and the absorbance at 490 nm were taken every 10 min on a plate reader (MD, SpectraMax M2). The results were imported into Graphpad Prism for curve fitting.
The cell used was HEK293T-Claudin 18.2. The ADCC activity of antibody 2C6.9-hz21 on HEK293T-Claudin 18.2 is stronger than that of IMAB362.

[5] = target: T1, human Claudin18.2; assay: Cellular ELISA on L929-Claudin 18.2 cells; assay type: binding; design: expressed in transfected cells; host or cells: L929, infected with pLVX-IRES-puro lentivirus, puromycin-selected monoclonal line; cells were formaldehyde-fixed for the cellular ELISA
Description: Human Claudin18.2 is a four transmembrane protein and has a complex structure. Cellular ELISA was thus carried out to maintain the structure of Claudin18.2. The stable cell line L929-Claudin 18.2 constructed in Example 1 were used for detection. Specifically, L929-Claudin 18.2 adherent cells were detached by 2 mM EDTA treatment. The cells were resuspended and adjusted to 2×10^5/mL and 100 μL of the resuspension was plated into 96 well plate and incubated overnight at 37° C. The next day, the media was removed, and the plate was washed with PBS once. 100 μL/well 4% formaldehyde was added to the plate. After 30 min of incubation at room temperature, formaldehyde was removed, followed by washing twice with PBS. Blocking buffer (PBS containing 2% BSA) was then added to the plate at 100 μL/well, and incubated at 37° C. for 2 h. After removal of blocking buffer, 100 μL/well of serially diluted antibodies (starting from 1 μM, with 4-fold dilution, for a total of 11 concentrations) were added to the corresponding wells, which were incubated at 37° C. for 2h afterwards. The plate was washed with 250 μL PBST for 5 times, and was allowed to stand for 2 min each time. 100 μL/well of horseradish peroxidase labeled anti-Human IgG secondary antibody (HRP-anti-Human IgG, Jackson ImmunoResearch, 109-035-003) diluted 1:10000 in PBS (containing 2% BSA) was added to the plate. The plate was incubated at 37° C. for 1 h and washed with 250 μL PB ST 6 times, wherein the plate was allowed to stand for 2 min each time. 100 μL/well of TMB solution (Thermo, 34029) was added. The reactions were incubated at 37° C. for 20 min and stopped with 50 μL 2 mol/L H2504. The absorbance at 450 nm was read on a plate reader (MD, SpectraMax M2) and the results were subjected to curve fitting by Graphpad Prism.

[6] = Monitoring of death and body weight during the tumor suppression experiment; assay type: in vivo; conditions: tumor-bearing Balb/c nude mice, combined with paclitaxel for injection, observation period
Excerpt: The mouse subcutaneous xenograft tumor model of NCI-N87-Claudin 18.2 was established by the method mentioned above. When the average volume of the tumors was about 110 mm^3, the tumor-bearing mice were grouped randomly according to tumor size. There were 3 groups: the group of anti-chicken lysozyme human IgG1 of isotype control (Negative Control, Chengdu Kelun-Biotech Co. Ltd., abbreviated as IgG1 WT), the group of paclitaxel for injection (Albumin Bound, Hunan Kelun), and the combination group of 2C6.9-hz21+Paclitaxel for injection. All samples were injected via tail vein twice a week for 3 weeks. After administration, the tumor volume and body weight of mice was observed and measured regularly, and the data analysis method is as described above.

B1: 2C6.9-hz21: humanized antibody of 2C6.9; VH SEQ ID NO: 40, VL SEQ ID NO: 41; heavy chain SEQ ID NO: 106, light chain 107 (antibody)
heavy: QVQLQESGPGLVKPSETLSLTCTVSGFSLTRYGVSWIRQPPGKGLEWIGVIWGEGNTNYNPSLKSRVTISKDSSKSQVSLKLSSVTAADTAVYYCARVNFGNALDYWGQGTLVTVSS[sequence of human IgG1 constant region omitted]
light: DIVMTQSPDSLAVSLGERATINCKSSQSLLNSGNQKNYLTWYQQKPGQPPKLLIYWASTRDSGVPDRFSGSGSGTDFTLTISSLQAEDVAVYYCQNDFIFPLTFGGGTKVEIKRTVAAPSVFIFPPSDEQLKSGTASVVCLLNNFYPREAKVQWKVDNALQSGNSQESVTEQDSKDSTYSLSSTLTLSKADYEKHKVYACEVTHQGLSSPVTKSFNRGEC
modifications: heavy chain amino acid sequence of humanized antibody 2C6.9 hz21; light chain amino acid sequence of humanized antibody 2C6.9 hz21
Max MFI [1]: 165866.3 | binding to human Claudin 18.2 [2]: specifically bind to human Claudin 18.2 | binding to human Claudin 18.1 [3]: not human Claudin 18.1 | Max Cytotoxicity [4]: 30% | Max Signal Value (OD450) ([5]; Table 9 experiment): 0.92 OD450 | Max Signal Value (OD450) ([5]; Table 10 experiment): 0.8 OD450 | drug toxicity (death, weight loss) [6]: no obvious drug toxicity

Reference: patent US12297265B2, “Antibody and use thereof” (SICHUAN KELUN-BIOTECH BIOPHARMACEUTICAL CO., LTD., priority 2018, dated 2025)
